# The campaign covered roughly 410,000 compounds. About 260 (0.063%) were called active. This list was built around the results that the source calls inconclusive (neither active nor inactive); the mix of calls is not that of the screen. The call rests on the fitted dose curve; in most records, active means well fitted activation curve with a large enough effect; inconclusive means small, poorly fitted or top-dose-only effect; inactive means no such curve, though single readings can be large or run the other way. No potency is given beside an inconclusive call; the fits are too rough.
# Assay: qHTS for compounds that reverse cellular toxicity of Amyloid beta (A-beta) peptide in yeast: Primary Screen; further: nearly all actives have a fitted effect of over 55% in size
# Conditions: yeast expressing A-beta42, growth rescue, OD600, 48 h; growth rescue: at 46.1 µM (top of the series), 0% DMSO, 100% iron-clioquinol control
# Method in brief: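 Growth rescue measured by 600 nm absorbance after 48 h yeast culture at 30 C with compound. Values normalized between DMSO and an equimolar ferric chloride plus clioquinol control.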
# Potency means the concentration at half of the fitted maximal effect; tags describe the fitted curve by direction and shape.
SMILES,Potency,growth rescue
O=C1NC2(CCc3ccccc3C2)C(=O)N1CCOc1cccc(Cl)c1 (configuration not stated),"inconclusive [activator, single point]",–
Cc1cccnc1NC(N)=S,"inconclusive [activator, partial curve, poor fit]",–
S=C(NCC1CCCO1)N1CCN(c2nc(-c3ccc(Cl)cc3)cs2)CC1 (configuration not stated),–,inconclusive: 42.7% [activator]
CC(C)Oc1cccc(C(=O)NC(=S)N2CCN(c3ccc(C(F)(F)F)cc3[N+](=O)[O-])CC2)c1,"inconclusive [activator, partial curve]",–
CC(NC(=O)COC(=O)c1ccc2c(=O)n3c(nc2c1)CCCCC3)c1ccccc1 (configuration not stated),"inconclusive [activator, single point]",–
CC1(Cc2cccc(F)c2)C(=O)Nc2ccc(OC(F)(F)F)cc21 (configuration not stated),"inconclusive [activator, single point]",–
Cc1ccccc1-n1c([C@@H]2C[C@H]2c2ccccc2)n[nH]c1=S,"inconclusive [activator, single point]",–
O=C(Nc1nccs1)c1ccc(-c2ccc(Cl)cc2Cl)o1,inactive,–
Cc1ccc(CC(=O)Nc2ccc3c(c2)N(C)C(=O)c2ccccc2S3)cc1,inactive,–
CCOC(=O)C(=O)Nc1nc(-c2ccc3c(c2)CCN3C(=O)C2CC2)c(C)s1,"inconclusive [activator, full curve]",–
CCOc1ccccc1C(=O)N(Cc1cc(OC)c(OC)c(OC)c1)c1ccccn1,inactive,–
COc1ccc(NC(=O)COC(=O)C2CCN(C(=O)c3ccc(Cl)cc3)CC2)c([N+](=O)[O-])c1,"inconclusive [activator, single point]",–
CC(=O)Nc1cc2c(cc1C(=O)c1ccc(C)cc1)OCCO2,"inconclusive [activator, partial curve, poor fit]",–
Cc1cccc(S(=O)(=O)NCCC(=O)OC(C)C(=O)NC(=O)NC2CCCCC2)c1 (configuration not stated),inactive,–
Cn1cccc1-c1cc(C(=O)N2CCc3c([nH]c4ccccc34)C2c2ccccn2)[nH]n1 (configuration not stated),"inconclusive [activator, partial curve, poor fit]",–
CN(CC(=O)Nc1cccc(F)c1)C(=O)CCSc1ccc(F)cc1,"inconclusive [activator, single point]",–
Cc1cc(C)nc(-n2ncc3c2CC(c2cccc(Cl)c2)CC3=O)n1 (configuration not stated),"inconclusive [activator, full curve, poor fit]",–
O=C(/C=C/c1ccco1)NC(=S)Nc1ccccc1Br,"inconclusive [activator, single point]",–
CCc1cc2c(NCc3ccccc3)nc(C)nc2s1,inactive,–
Cc1cccc(Cl)c1NC(=S)NN,"inconclusive [activator, single point]",–
Nc1nc(=S)ss1,"inconclusive [activator, partial curve]",–
CCN(CC)S(=O)(=O)c1ccc(Cl)c(NC(=O)COc2ccc(OC)cc2[N+](=O)[O-])c1,"inconclusive [activator, partial curve, poor fit]",–
NC(=O)c1ccc(Sc2nnc(-c3cccs3)n2CC2CCCO2)c([N+](=O)[O-])c1 (configuration not stated),"inconclusive [activator, single point]",–

SMILES,Potency,growth rescue
Cc1ccc(C(=O)N2CCc3cc(CNC(=O)c4ccc(Br)cc4)ccc32)cc1,inactive,–
CCOC(=O)C(C(=O)OCC)c1cc(Br)c2noc3c2c1C(=O)c1ccccc1-3,inactive,–
COc1ccc2ccccc2c1/C=N\NC(=O)c1cccnc1,"inconclusive [activator, single point]",–
O=S(=O)(Oc1ccccc1-c1ccccc1)c1ccccc1,"inconclusive [activator, partial curve]",–
COc1ccc(C(C(=O)NC(C)(C)C)N(Cc2cccs2)C(=O)CCC(=O)Nc2cc(C)on2)cc1 (configuration not stated),"inconclusive [activator, single point]",–
O=C(N/N=C\c1ccc([N+](=O)[O-])o1)C1COc2ccccc2O1 (configuration not stated),inactive,–
Cc1ccc(S(=O)(=O)N(C)C)cc1NC(=S)Nc1cccc2ccccc12,"inconclusive [activator, single point]",–
CCOc1ccc(S(=O)(=O)N2CCC(C(=O)NCc3cccnc3)CC2)cc1Cl,"inconclusive [activator, single point]",–
COc1ccc(-c2nc3sc(CCNS(=O)(=O)c4c(C)cc(C)cc4C)c(C)n3n2)cc1,"inconclusive [activator, single point]",–
O=C1CC(N2CCN(Cc3ccc4c(c3)OCO4)CC2)C(=O)N1Cc1ccc(N2CCCC2=O)cc1 (configuration not stated),inactive,–
CC(/C=C/c1ccccc1)=N\NC(=S)NC(C)C,"inconclusive [activator, partial curve, poor fit]",–
COc1cc(C)ccc1OCCOCCOc1cc(C)c(C)cc1Br,"inconclusive [activator, partial curve]",–
c1cc(-c2nsc(-c3ccncc3)n2)ccn1,"inconclusive [activator, partial curve, poor fit]",–
CCOc1cccc(NC(=O)c2cccc(F)c2)c1,"inconclusive [activator, single point]",–
CCOc1ccc(NS(=O)(=O)c2ccc(NS(=O)(=O)c3ccccc3)cc2)cc1,"inconclusive [activator, single point]",–
Cc1ccc(-c2nn3c(=O)cc(CN4CCN(C(=O)c5ccc(C(C)(C)C)cc5)CC4)nc3s2)cc1,inactive,–
CCOc1cc(CNC2CCCC2)ccc1OCc1ccccc1Cl,inactive,–
CCN1CCN(C(c2cccnc2)c2cc(Cl)c3cccnc3c2O)CC1 (configuration not stated),"inconclusive [activator, single point]",–
CCOC(=O)c1cc(S(=O)(=O)N2CCN(c3cc(Cl)ccc3C)CC2)[nH]n1,inactive,–
Cc1ccc(C)c(C(C)NC(=S)NC2CCCCC2)c1 (configuration not stated),"inconclusive [activator, partial curve, poor fit]",–
CC(C)NC(=S)N/N=C/c1cc(Br)ccc1O,"inconclusive [activator, single point]",–
CN(CCOc1ccccc1)CC(=O)Nc1cccc(C#N)c1,"inconclusive [activator, partial curve, poor fit]",–
O=C(O)COc1ccc(/C=N/NC(=O)c2ccc(-c3csc(Nc4ccc(Cl)cc4)n3)cc2)cc1,inactive,–

SMILES,Potency,growth rescue
Cc1cccc2cc(CN(Cc3cccs3)S(=O)(=O)c3ccc4c(c3)OCCO4)c(=O)[nH]c12,–,inconclusive: 30.1% [activator]
CCCn1nnc(NC(=O)c2cc(Br)ccc2OC)n1,inactive,–
CCCN(C(=O)Cn1cnc2sc(C)c(S(=O)(=O)N3CCN(c4ncccn4)CC3)c2c1=O)c1cccc(C)c1,inactive,–
CCOC(=O)CNC(=S)N(Cc1ccccc1F)C1CCCCC1,active: 7.08 µM,–
Cc1cc(C(=O)Nc2ccccc2Cc2ccccc2)no1,"inconclusive [activator, single point]",–
CCN(C(=O)CSc1nnnn1C)c1c(N)n(Cc2ccccc2)c(=O)[nH]c1=O,"inconclusive [activator, single point]",–
Cc1ccc(N(C(=O)Cc2cccs2)C(C(=O)NC2CCCCC2)c2ccccn2)cc1C (configuration not stated),inactive,–
Fc1ccccc1NC(=S)NCc1ccc(Cl)cc1,"inconclusive [activator, partial curve, poor fit]",–
CCN(C(=O)CN1C(=O)NC(c2ccccc2)(c2ccc(C)c(C)c2)C1=O)C1CCCCC1 (configuration not stated),"inconclusive [activator, partial curve, poor fit]",–
CCOc1ccccc1NC(=O)CCc1nc(-c2cccc(C)c2)no1,"inconclusive [activator, single point]",–
C/C(=N\NC(=O)c1cc2ccccc2cc1O)c1ccccn1,"inconclusive [activator, single point]",–
FC(F)(F)Sc1ccc(NC(=S)NCc2ccccc2)cc1,"inconclusive [activator, partial curve, poor fit]",–
OCCN1CCN(C(=S)c2ccc(Br)cc2)CC1,"inconclusive [activator, single point]",–
COc1ccc(NC2=C(C(C)=O)C(c3ccc4c(c3)OCO4)C(C(C)=O)C(C)(O)C2)cc1 (configuration not stated),"inconclusive [activator, partial curve, poor fit]",–
CC(NC(=S)Nc1ccc(OC(F)F)c(Cl)c1)C(C)(C)C (configuration not stated),"inconclusive [activator, partial curve, poor fit]",–
CC1=C(C(=O)NCc2ccccc2)C(c2cccs2)n2ncnc2N1 (configuration not stated),"inconclusive [activator, full curve]",–
Cc1nnnn1/C(=C\c1ccccc1)C(=O)OCC(=O)NC1CCCCC1,"inconclusive [activator, partial curve, poor fit]",–
Fc1ccc(NC(=S)NCc2ccccc2Cl)cc1,"inconclusive [activator, partial curve]",–
CCc1ccc(C2=C(C)C(N3CCC(C(=O)Nc4ccc(F)cc4)CC3)=NS2(=O)=O)cc1,inactive,–
Fc1ccc(Nc2nc(-c3cccc(Cl)c3)c3c(n2)-c2ccccc2OC3)cc1,inactive,–
CC(C)c1ccc(S(=O)(=O)c2nnn3c2nc(NCc2cccs2)c2sccc23)cc1,inactive,–

# — PubChem BioAssay AID1347071 (National Center for Advancing Translational Sciences (NCATS), 2019)
